Consider two molecules from patent US20240392020A1 (JIANGSU HENGRUI PHARMACEUTICALS, published 2024).

Test [1] concerns the target T1, hNGF (human, UniProt P01138 part only, limits assumed).
T1 construct: bought
The experiment in a line: SPR Biacore T200, antibody captured on Protein A chip. (In general: Surface plasmon resonance follows binding to a sensor surface in real time, without labels.)

Test [2] concerns the target T1, hNGF. The experiment in a line: ELISA.
For another test, the target named is T2, Heavy chain of D3.
T2 construct: single antibody chain, co-expressed
The experiment in a line: co-expression in HEK293E cells, LC-MS for the mispaired molecule.

T1 sequence (P01138 122-241 limits assumed): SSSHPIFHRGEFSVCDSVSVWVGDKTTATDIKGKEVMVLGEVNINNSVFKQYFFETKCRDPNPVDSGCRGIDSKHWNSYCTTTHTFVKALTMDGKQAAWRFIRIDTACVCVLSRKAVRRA

B1: Tmab (antibody, human IgG1, kappa)
heavy: QVQLQESGPGLVKPSETLSLTCTVSGFSLIGYDLNWIRQPPGKGLEWIGIIWGDGTTDYNSAVKSRVTISKDTSKNQFSLKLSSVTAADTAVYYCARGGYWYATSYYFDYWGQGTLVTVSS[human IgG1 constant region cut from this listing]
light: DIQMTQSPSSLSASVGDRVTITCRASQSISNNLNWYQQKPGKAPKLLIYYTSRFHSGVPSRFSGSGSGTDFTFTISSLQPEDIATYYCQQEHTLPYTFGQGTKLEIKRTVAAPSVFIFPPSDEQLKSGTASVVCLLNNFYPREAKVQWKVDNALQSGNSQESVTEQDSKDSTYSLSSTLTLSKADYEKHKVYACEVTHQGLSSPVTKSFNRGEC
notes: also called I0
In the test with hNGF [1], B1 returned a dissociation constant (Kd) of 0.0621 nM, an off-rate constant (koff) of 0.000119 s⁻¹ and a kon of 1.92e+06 M⁻¹ s⁻¹. Further, in the test with hNGF [2], the EC50 was 1.42 nM.

B2: Light chain of I0 (other)
light: B1 light
notes: single antibody chain, co-expressed
Take B2: in the test with Heavy chain of D3, the binding result is “no binding”.

A word on the Kd: it is a measure of binding affinity in units of concentration. A low value points to tighter binding. By koff is commonly meant the rate constant with which the complex falls apart. Low values mean a long-lived complex, high ones a short-lived complex. A word on the kon: it is the rate constant with which the complex forms. The EC50 is the concentration needed to bring the measured effect to its halfway point.
